Test results from paper PMC6919601, “Identification of Plasmodium dipeptidyl aminopeptidase allosteric inhibitors by high throughput screening” (PLoS ONE, 2019).
The whole screen tested about 110,000 compounds, of which about 230 (0.21%) showed an effect of 50% or more. The list shows a part of the results.

Molecular target: DPAP1 (Plasmodium falciparum, UniProt Q8IIJ9)
Assay: primary screen, percent inhibition; read by cleavage of a fluorogenic dipeptide substrate; higher = more effect of the substance
Set-up: species or system P. falciparum D10 trophozoite lysates; single well
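Also: 30 min substrate incubation versus DMSO and 10 µM JCP410 controls.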

Sequence of DPAP1 (Q8IIJ9 whole entry, looked up): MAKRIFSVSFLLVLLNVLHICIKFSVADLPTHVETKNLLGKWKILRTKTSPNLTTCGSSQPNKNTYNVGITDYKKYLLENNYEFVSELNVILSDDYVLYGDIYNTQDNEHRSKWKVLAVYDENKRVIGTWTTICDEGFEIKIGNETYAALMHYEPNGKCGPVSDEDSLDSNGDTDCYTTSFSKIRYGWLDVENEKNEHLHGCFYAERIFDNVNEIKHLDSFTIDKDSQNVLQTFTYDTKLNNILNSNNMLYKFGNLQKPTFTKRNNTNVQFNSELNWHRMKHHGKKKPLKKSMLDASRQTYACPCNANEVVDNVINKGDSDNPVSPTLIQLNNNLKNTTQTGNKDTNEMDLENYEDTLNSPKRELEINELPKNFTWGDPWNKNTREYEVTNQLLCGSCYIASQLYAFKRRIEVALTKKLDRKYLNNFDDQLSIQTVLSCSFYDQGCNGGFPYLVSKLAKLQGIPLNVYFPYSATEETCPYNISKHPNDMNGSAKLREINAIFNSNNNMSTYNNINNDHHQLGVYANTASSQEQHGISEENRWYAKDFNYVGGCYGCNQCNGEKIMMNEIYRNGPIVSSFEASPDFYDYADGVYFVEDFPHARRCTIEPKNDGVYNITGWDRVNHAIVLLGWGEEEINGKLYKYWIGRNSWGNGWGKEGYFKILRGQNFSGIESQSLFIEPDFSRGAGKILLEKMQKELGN

SMILES | % Inhibition @ 10 uM
CC1=C(C(=O)Nc2ccccc2C)C(c2cccs2)n2c(s/c(=C/c3cnn(C)c3)c2=O)=N1 (stereo not drawn) | -2.99%
O=S(=O)(c1ccccc1)N1CCSC1c1ccccc1 (stereo not drawn) | -3.6%
Cc1ccc(CN(CC(=O)NC(C)c2ccccc2)S(=O)(=O)c2ccccc2)cc1 (stereo not drawn) | -1.61%
CCCn1c(=O)c2sccc2n2c(CCCC(=O)N3CCN(Cc4ccccc4)CC3)nnc12 | -0.212%
CCS(=O)(=O)c1nc(S(=O)(=O)c2ccc(Cl)cc2)c(NCCCN(C)C)s1 | 1.15%
COc1ccc(CNC(=O)C2COc3ccccc3O2)cc1 (stereo not drawn) | -7.63%
CC(C)CCn1cnc2c(cnn2-c2ccc(Cl)cc2)c1=O | -3.53%
CCCCC(=O)Nc1nc(-c2ccc(S(=O)(=O)N3CCOCC3)cc2)cs1 | -2.06%
N#C/C(=C/C=C/c1ccccc1)c1nc(-c2ccc(F)cc2)cs1 | -9.91%
COc1ccc(CCNCc2ccc(SC)cc2)cc1 | -3.32%
O=C(Nc1ccncc1)c1nn2c(C(F)(F)F)cc(-c3cccs3)nc2c1Br | 1.58%
Cc1c(CNC(=O)c2cc(-c3ccccc3)nc3ccccc23)cnn1C | -0.318%
N#CCNC(=O)[C@H](CCC(=O)Nc1ccccc1)NC(=O)c1ccc(Br)cc1 | -1.41%
COc1ccc(-c2[nH]nc3c2C(c2ccc(C)o2)C(C#N)=C(N)O3)cc1 (stereo not drawn) | 5.9%
Cc1cccc2sc(N(CCCN(C)C)C(=O)c3ccc4ncsc4c3)nc12 | -1.07%
CC1(C)CC2CC(C)(CN2C(=O)/C(=C\c2ccco2)NC(=O)c2ccc(Cl)cc2)C1 (stereo not drawn) | 5.37%
COc1ccc(CNCc2c(C(=O)O)n(Cc3ccc(OC)cc3)c3cc(OC)ccc23)cc1 | 6.42%
COc1cc(-c2nc3cc(C)ccn3c2N)ccc1O | -5.23%
c1ccc2c(CCc3ccncc3)c[nH]c2c1 | 6.14%
Clc1ccc(Cn2ncc3c(N4CCCCCC4)ncnc32)c(Cl)c1 | 5.31%
COc1ccc(C(C)NCc2ccccn2)cc1 (stereo not drawn) | -5.67%
CCOC(=O)C(C(=O)Nc1cc(N(C)C)ccc1C)C1CCCCC1 (stereo not drawn) | -2.42%
O=C(c1cc2c(s1)-c1ccc(Cl)cc1S(=O)(=O)C2)N1CCN(c2ccccn2)CC1 | 0.953%
COc1cccc(-n2c(S)nnc2CN2CCSCC2)c1 | 5.92%
COc1ccc(C(=O)n2nc(-c3ccco3)nc2NCc2ccc(F)cc2)cc1 | -1.11%
N#Cc1ccccc1NS(=O)(=O)c1ccccc1[N+](=O)[O-] | 2.38%
Cn1nnc2c(N3CC=CCC3)nc(Cc3ccc(Cl)cc3Cl)nc21 | -3.24%
